Laboratory results as given in the RNAGym collection of RNA variant scans (doi:10.1101/gad.245936.114).
This sample is rich in variants without activity.

B1: tRNA (parent)
chain: CUCUCGGUAGCCAAGUUGGUUUAAGGCGCAAGACUUUAAUUUAUCACUACGAAAUCUUGAGAUCGGGCGUUCGACUCGCCCCCGGGAGAUUUUUUCCUCGAGCAA

Variants of: B1
Assay: nonsense suppression (GFP-seq) (ratio to wild type); higher = more function; SUP4oc tRNA, yeast GFP reporter sort-seq
Summary of the method: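 Nonsense suppression (GFPSEQ) is the median GFP/RFP ratio of each sorting bin, weighted by the variant's estimated share of cells in that bin and expressed relative to the unmutated parent tRNA. Yeast strains carried genome-integrated variants of an ochre-suppressor tRNA from a library with ~3% random mutations, plus a galactose-driven GFP ochre reporter and RFP, and were grown in raffinose/galactose medium containing 80 mg/L adenine. Cells were sorted into GFP/RFP bins, each bin was Illumina-sequenced (phred ≥30), and variants were kept only with ≥100 reads and ≥30 cells.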

G6U G18C U76C A87G and G6C C72G A74C cannot be ordered by nonsense suppression: ≤ 0.026 for the first, ≤ 0.026 for the second.

G6C U20G U22A and G6U G65A A87G cannot be ordered by nonsense suppression: ≤ 0.026 for the first, ≤ 0.026 for the second.

G6C G7C A31U and G7A G18U U76A cannot be ordered by nonsense suppression: ≤ 0.026 for the first, ≤ 0.026 for the second.

G6C U35G C56G G65A and G6C C77A cannot be ordered by nonsense suppression: ≤ 0.026 for the first, ≤ 0.026 for the second.

G6U A89G and G6U A89U cannot be ordered by nonsense suppression: ≤ 0.026 for the first, ≤ 0.026 for the second.

G6U A13U and G7A G19C C34U G61C A87C cannot be ordered by nonsense suppression: ≤ 0.026 for the first, ≤ 0.026 for the second.

G6C C56U and G7A C11A G25U A74C cannot be ordered by nonsense suppression: ≤ 0.026 for the first, ≤ 0.026 for the second.

G7A G15U C34G U70G C77G and G6U A13G C72U cannot be ordered by nonsense suppression: ≤ 0.026 for the first, ≤ 0.026 for the second.

G7A U17A G26A A31G U55A C72G and G7C A23C U55C C82U cannot be ordered by nonsense suppression: ≤ 0.026 for the first, ≤ 0.026 for the second.

G6U A13U U21G and G7A U22A G61A cannot be ordered by nonsense suppression: ≤ 0.026 for the first, ≤ 0.026 for the second.

G6U C29A U35G U57G C72A and G6A U63A cannot be ordered by nonsense suppression: ≤ 0.026 for the first, ≤ 0.026 for the second.

G6A U63G and G6C A24G cannot be ordered by nonsense suppression: ≤ 0.026 for the first, ≤ 0.026 for the second.

Compared with G7A A23G G32A A33C, G6U U20A C83G is higher in nonsense suppression: ≤ 0.026 for the first, 0.186 for the second.

G6U C34G A89G and G6A U16G C68U G84U A87G cannot be ordered by nonsense suppression: ≤ 0.026 for the first, ≤ 0.026 for the second.

G6A U16G C68U G84U A87U and G6U A31G G78U cannot be ordered by nonsense suppression: ≤ 0.026 for the first, ≤ 0.026 for the second.

G6C C80A and G6C C80G cannot be ordered by nonsense suppression: ≤ 0.026 for the first, ≤ 0.026 for the second.

G6C C27U G67A G85U and G6C A14C G78A cannot be ordered by nonsense suppression: ≤ 0.026 for the first, ≤ 0.026 for the second.

G7A U20G U35A and G6U cannot be ordered by nonsense suppression: ≤ 0.026 for the first, ≤ 0.026 for the second.

G6C and G7A A14G G26U cannot be ordered by nonsense suppression: ≤ 0.026 for the first, ≤ 0.026 for the second.

G6U A9C U35G G65A and G7C A31G C34A C56A cannot be ordered by nonsense suppression: ≤ 0.026 for the first, ≤ 0.026 for the second.

G6U G15C A24G G26A and G6C A31C cannot be ordered by nonsense suppression: ≤ 0.026 for the first, ≤ 0.026 for the second.

G6A U20C U22A G28U G84C and G7C A9C U17G cannot be ordered by nonsense suppression: ≤ 0.026 for the first, ≤ 0.026 for the second.

G6U U17G C27G U70C and G6A U17C cannot be ordered by nonsense suppression: ≤ 0.026 for the first, ≤ 0.026 for the second.

G6C A9G A24G G69C A74G A87G G88U and G6U G26U G59U G84C cannot be ordered by nonsense suppression: ≤ 0.026 for the first, ≤ 0.026 for the second.

G7C A9C U57C C75A and G6C C11A G66A C80U C82G cannot be ordered by nonsense suppression: ≤ 0.026 for the first, ≤ 0.026 for the second.

G6U C34G and G6U U17C A24U G61C cannot be ordered by nonsense suppression: ≤ 0.026 for the first, ≤ 0.026 for the second.

Going from G6U C83G to G6C G26C, the nonsense suppression falls from 0.923 to ≤ 0.026.

G7A A60C G85U and G7A G78C C82G cannot be ordered by nonsense suppression: ≤ 0.026 for the first, ≤ 0.026 for the second.

G6U G10C U70G G73C C80A and G6U G59A cannot be ordered by nonsense suppression: ≤ 0.026 for the first, ≤ 0.026 for the second.

G6C U22G A33U and G7C C12A U71G U76C G88A cannot be ordered by nonsense suppression: ≤ 0.026 for the first, ≤ 0.026 for the second.

G6C G88C and G6C A9U cannot be ordered by nonsense suppression: ≤ 0.026 for the first, ≤ 0.026 for the second.

G6U U22C G88C and G7C C12A C29U cannot be ordered by nonsense suppression: ≤ 0.026 for the first, ≤ 0.026 for the second.

G6A G85C and G6U U76A G86A cannot be ordered by nonsense suppression: ≤ 0.026 for the first, ≤ 0.026 for the second.

G6U G65C and G6U G65A cannot be ordered by nonsense suppression: ≤ 0.026 for the first, ≤ 0.026 for the second.

G6U U17C U21A G26A G32U G59A G65A G85A and G6U U58G cannot be ordered by nonsense suppression: ≤ 0.026 for the first, ≤ 0.026 for the second.

G7A A74C and G6U G19A U20A cannot be ordered by nonsense suppression: ≤ 0.026 for the first, ≤ 0.026 for the second.

G6U G26U and G6U G26C A31G G85C cannot be ordered by nonsense suppression: ≤ 0.026 for the first, ≤ 0.026 for the second.

G7A G86C and G7A C11U C27A G32A A54C C81G cannot be ordered by nonsense suppression: ≤ 0.026 for the first, ≤ 0.026 for the second.

G7A U17A G18C and G6U U57C C82A cannot be ordered by nonsense suppression: ≤ 0.026 for the first, ≤ 0.026 for the second.

G7A G15A A31G C79A and G7C A31U C34G G61U cannot be ordered by nonsense suppression: ≤ 0.026 for the first, ≤ 0.026 for the second.

G6U A23U C79U and G7C cannot be ordered by nonsense suppression: ≤ 0.026 for the first, ≤ 0.026 for the second.

G7A and G7A C27U A31U cannot be ordered by nonsense suppression: ≤ 0.026 for the first, ≤ 0.026 for the second.

G6U U76G and G6U U76A cannot be ordered by nonsense suppression: ≤ 0.026 for the first, ≤ 0.026 for the second.

G7A U63C and G6U A14G A33C C56U cannot be ordered by nonsense suppression: ≤ 0.026 for the first, ≤ 0.026 for the second.

G6C C27U C34A C64U and G6C A14U G78U C79G cannot be ordered by nonsense suppression: ≤ 0.026 for the first, ≤ 0.026 for the second.

G6C U70A and G6U C64U cannot be ordered by nonsense suppression: ≤ 0.026 for the first, ≤ 0.026 for the second.

First: G6A U55C
Second: G6U U63G U71C G85U A89C
The nonsense suppression of the first is higher: 0.262 for the first, ≤ 0.026 for the second.

G6U C11A C29U G61A A89C and G7C A9C G86U cannot be ordered by nonsense suppression: ≤ 0.026 for the first, ≤ 0.026 for the second.

G6U U16A U17G C77A and G7A U71C cannot be ordered by nonsense suppression: ≤ 0.026 for the first, ≤ 0.026 for the second.

G6U G67C C68G and G6U G15U U63A cannot be ordered by nonsense suppression: ≤ 0.026 for the first, ≤ 0.026 for the second.

G7A A13C C75A and G6C A14U G66A cannot be ordered by nonsense suppression: ≤ 0.026 for the first, ≤ 0.026 for the second.

G6U U21C and G7A C81G cannot be ordered by nonsense suppression: ≤ 0.026 for the first, ≤ 0.026 for the second.

G6A U20C and G6A U20G cannot be ordered by nonsense suppression: ≤ 0.026 for the first, ≤ 0.026 for the second.

G6C U21C G85U and G6U G7C G59U cannot be ordered by nonsense suppression: ≤ 0.026 for the first, ≤ 0.026 for the second.

G7A U16C and G7A C12U A60U U70C cannot be ordered by nonsense suppression: ≤ 0.026 for the first, ≤ 0.026 for the second.

G6U U20C A30U G59U A89C and G6C U20G cannot be ordered by nonsense suppression: ≤ 0.026 for the first, ≤ 0.026 for the second.

G7A G25C G61U U63G C64G and G6A U8G G19U U57C U70C G86A G88A cannot be ordered by nonsense suppression: ≤ 0.026 for the first, ≤ 0.026 for the second.

G6C G69U G88C and G6U G66C cannot be ordered by nonsense suppression: ≤ 0.026 for the first, ≤ 0.026 for the second.

G6C G69C and G7A G25A cannot be ordered by nonsense suppression: ≤ 0.026 for the first, ≤ 0.026 for the second.

G7A C83U A87C and G7A U17A C83A cannot be ordered by nonsense suppression: ≤ 0.026 for the first, ≤ 0.026 for the second.

G7C A9U U63C U71A and G6C G7A G28U G69U G86C cannot be ordered by nonsense suppression: ≤ 0.026 for the first, ≤ 0.026 for the second.

G7A A33U U76C A87C and G6U A24C C64A cannot be ordered by nonsense suppression: ≤ 0.026 for the first, ≤ 0.026 for the second.

G6U A31G U71A and G7A U57C cannot be ordered by nonsense suppression: ≤ 0.026 for the first, ≤ 0.026 for the second.

G7C A23C C81U C82U and G7A G19U U71C cannot be ordered by nonsense suppression: ≤ 0.026 for the first, ≤ 0.026 for the second.

G7A G19U U71A and G6C U70C U76C C80A cannot be ordered by nonsense suppression: ≤ 0.026 for the first, ≤ 0.026 for the second.

G6C A14G and G6C A14U cannot be ordered by nonsense suppression: ≤ 0.026 for the first, ≤ 0.026 for the second.

G7C A9C G18U G25U C81A and G7A U35G G59A cannot be ordered by nonsense suppression: ≤ 0.026 for the first, ≤ 0.026 for the second.

G7A G10C G15A G61C G84C and G6U U17A cannot be ordered by nonsense suppression: ≤ 0.026 for the first, ≤ 0.026 for the second.

G6U C34U G73A and G7A U8C cannot be ordered by nonsense suppression: ≤ 0.026 for the first, ≤ 0.026 for the second.

G7A A74G A87G and G6C U63C G84C cannot be ordered by nonsense suppression: ≤ 0.026 for the first, ≤ 0.026 for the second.

G7C C11U A30G and G6U A33U A60C cannot be ordered by nonsense suppression: ≤ 0.026 for the first, ≤ 0.026 for the second.

G6C A9G A30U and G6U U8G C81A cannot be ordered by nonsense suppression: ≤ 0.026 for the first, ≤ 0.026 for the second.

G6C U21C A24C and G6U A31U U76C cannot be ordered by nonsense suppression: ≤ 0.026 for the first, ≤ 0.026 for the second.

G6A U8G C80G and G6U U21A A74G cannot be ordered by nonsense suppression: ≤ 0.026 for the first, ≤ 0.026 for the second.

G6U C11G A23C G78A and G7C C12G C34G U55A cannot be ordered by nonsense suppression: ≤ 0.026 for the first, ≤ 0.026 for the second.

G7C A9U C82U and G7A G28U C34A cannot be ordered by nonsense suppression: ≤ 0.026 for the first, ≤ 0.026 for the second.

G6C A31C G85C and G6U A13U U35G A62C A89U cannot be ordered by nonsense suppression: ≤ 0.026 for the first, ≤ 0.026 for the second.

G7A G15U U55C A74G and G6C A54C cannot be ordered by nonsense suppression: ≤ 0.026 for the first, ≤ 0.026 for the second.

G6U A13U A31G U35G G73A G88C and G6C U20C U63C G88A cannot be ordered by nonsense suppression: ≤ 0.026 for the first, ≤ 0.026 for the second.

G6U U63C G66C and G6U C11U A13U cannot be ordered by nonsense suppression: ≤ 0.026 for the first, ≤ 0.026 for the second.

G6C G15A and G7A C29A C56U C64U cannot be ordered by nonsense suppression: ≤ 0.026 for the first, ≤ 0.026 for the second.

G6U C34A A54C G65A C75A and G7C A9G U16C C56G G69C cannot be ordered by nonsense suppression: ≤ 0.026 for the first, ≤ 0.026 for the second.

G7A G32C C64U C72A and G6A U20A A30C G88A cannot be ordered by nonsense suppression: ≤ 0.026 for the first, ≤ 0.026 for the second.

For G6C U22G U35A, the nonsense suppression was ≤ 0.026.
